# According to PubChem BioAssay AID2147 (National Center for Advancing Translational Sciences (NCATS), 2009):
# Hit rate of the full screen: of about 230,000 compounds, about 3,600 (1.6%) were called active. Inconclusive means that the source gave no clear call. Such entries were picked first, then a sample of the others. The call rests on the fitted dose curve; in most records, active means well fitted inhibition curve with a large enough effect (not every such curve was filed as active); inconclusive means small, poorly fitted or top-dose-only effect, or another doubt; inactive means no such curve, though single readings can be large or run the other way. A potency beside an inconclusive call is a rough fit, not a confirmed value.
# Biological target: Lysine-specific demethylase 4E (Homo sapiens) (UniProt B2RXH2)
# Test: qHTS Assay for Inhibitors of Human Jumonji Domain Containing 2E (JMJD2E)
# Details: JMJD2E catalytic domain, FDH-coupled NADH fluorescence (FDH is formaldehyde dehydrogenase); series mostly up to 57.1 µM; activity change, negative = inhibition: at the top concentration
# Further: nearly all actives have a fitted effect of over 50% in size.
# Potency means the concentration at half of the fitted maximal effect; tags describe the fitted curve by direction and shape.
# 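Wherever activity change, negative = inhibition is given: 0% = wells with enzyme and -100% = buffer wells without enzyme.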
# UniProt B2RXH2, sequence (B2RXH2 whole entry, looked up, the tested form may be a part): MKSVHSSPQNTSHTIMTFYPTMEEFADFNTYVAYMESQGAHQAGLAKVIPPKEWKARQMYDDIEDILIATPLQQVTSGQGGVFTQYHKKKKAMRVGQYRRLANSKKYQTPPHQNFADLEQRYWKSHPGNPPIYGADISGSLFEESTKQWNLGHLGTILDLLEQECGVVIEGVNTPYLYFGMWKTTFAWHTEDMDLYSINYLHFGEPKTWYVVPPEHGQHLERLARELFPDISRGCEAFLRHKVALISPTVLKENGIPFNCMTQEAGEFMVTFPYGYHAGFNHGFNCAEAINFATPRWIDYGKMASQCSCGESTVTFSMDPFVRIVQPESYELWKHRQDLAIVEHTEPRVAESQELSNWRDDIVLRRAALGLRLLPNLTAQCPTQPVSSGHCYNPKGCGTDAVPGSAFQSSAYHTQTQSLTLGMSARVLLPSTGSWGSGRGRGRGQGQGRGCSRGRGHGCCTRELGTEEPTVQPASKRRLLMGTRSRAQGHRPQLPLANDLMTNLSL
Structure (SMILES),Potency,"activity change, negative = inhibition"
CC1=NN(c2ccc(C(=O)O)cc2)C(=O)/C1=C\c1ccc(OC(=O)c2cccs2)cc1,active: 3.16 µM,–
CN1C(=O)c2cccc(NC(=O)C3CCCCC3)c2C1=O,"inconclusive: 22.4 µM [inhibitor, partial curve]",–
O=C(CC1Sc2ncnn2C1=O)Nc1ccc(Br)cc1 (stereo unspecified),active: 2.24 µM,–
Cc1ccc(Nc2c([N+](=O)[O-])cc(C(=O)N3CC(=O)Nc4ccccc43)cc2[N+](=O)[O-])c(C)c1,–,inactive: -5.47%
CCN1N=C(C)C=C(c2ccccc2)n2c1nc1ccccc12,"inconclusive: 25.1 µM [inhibitor, partial curve]",–
COc1ccc(N)cc1C#N,"inconclusive: 39.8 µM [inhibitor, single point]",–
COc1ccc(C2=CC3=C(Br)C(=O)C(C)(OC(=O)c4ccco4)C(=O)C3=CO2)cc1 (stereo unspecified),inactive,–
Cc1ccc(C2/C(=C(\O)c3cnn(-c4ccccc4)c3C)C(=O)C(=O)N2CCN(C)C)o1 (stereo unspecified),"inconclusive: 7.08 µM [inhibitor, single point]",–
COCCCNCC(=O)Nc1sc(C)c(C)c1C(=O)OC,"inconclusive: 35.5 µM [inhibitor, single point]",–
O=C(NCCCN1CCOCC1)c1cc2c(s1)CSC2,"inconclusive: 22.4 µM [inhibitor, single point]",–
CC(=O)[C@@H]1[C@@H]2C(=O)N(c3ccc(F)c(Cl)c3)C(=O)[C@@H]2C2c3ccccc3C=CN21 (stereo partly specified),"inconclusive: 25.1 µM [inhibitor, single point]",–
c1ccc(-c2nc(N3CCCCCC3)c3ccccc3n2)nc1,–,inactive: 2.41%
C=CCn1cc(/C=N/NC(=O)COc2cccc3cccnc23)c2ccccc21,"inconclusive: 39.8 µM [inhibitor, single point]",–
Cc1ccc(CN(Cc2ccco2)C(=S)NCC(=O)NC2CC2)cc1,–,inactive: 0.951%
O=C(Nc1cccc(CCc2ccccn2)c1)c1ccc(Cl)cc1,"inconclusive: 39.8 µM [inhibitor, single point]",–
COc1ccccc1CCN=C(N)NS(=O)(=O)c1ccccc1,"inconclusive: 35.5 µM [inhibitor, single point]",–
N/C(=N\OC(=O)CCc1ccccc1)c1cccnc1,"inconclusive: 6.31 µM [inhibitor, single point]",–
COc1cc(OC)cc(C(=O)Nc2nnc(-c3cccnc3)o2)c1,"inconclusive: 35.5 µM [inhibitor, single point]",–
COc1ccc2cc3cc(C(=O)NCc4cccnc4)oc3nc2c1,"inconclusive: 28.2 µM [inhibitor, partial curve]",–
COc1ccc(NS(=O)(=O)c2ccc(O)c(NC(=O)c3ccc(S(=O)(=O)N4CCCC4)cc3)c2)cc1,–,inactive: 5.13%
COc1ccc(CNC(=O)C(c2ccco2)N(C(=O)Cc2cccs2)c2cccnc2)cc1 (stereo unspecified),–,inactive: 3.81%
O=C(O)c1nnn(-c2ccc([N+](=O)[O-])cc2)c1-c1ccccc1,"inconclusive: 39.8 µM [inhibitor, single point]",–
Cc1cc(O)ccc1Nc1nc(-c2sc(N)nc2C)cs1,"inconclusive: 39.8 µM [inhibitor, single point]",–

Structure (SMILES),Potency,"activity change, negative = inhibition"
CC1(C)C(=O)NC2=C1C(=O)C(=O)c1ccccc12,"inconclusive: 0.355 µM [inhibitor, full curve, poor fit]",–
CC(C)CNC(=O)CC1Nc2ccccc2NC1=O (stereo unspecified),"inconclusive: 28.2 µM [inhibitor, partial curve]",–
Oc1ccc(C=Nc2ccccc2-c2nc3ccccc3[nH]2)c(O)c1,"inconclusive: 28.2 µM [inhibitor, partial curve]",–
CCOC(=O)c1ccccc1NC(=S)N1CC(C)CC(C)C1 (stereo unspecified),"inconclusive: 28.2 µM [inhibitor, single point]",–
COc1cc(/C=C/c2cc(C(=O)O)c3ccccc3n2)ccc1OC(F)F,"inconclusive: 28.2 µM [inhibitor, partial curve]",–
CC(=O)N(CCO)Cc1cc2cc(C)cc(C)c2[nH]c1=O,"inconclusive: 31.6 µM [inhibitor, partial curve]",–
Cc1ccc(S(=O)(=O)N2CCN(C(=O)CSc3nncs3)CC2)cc1,–,inactive: -4.04%
c1ccc(OCc2nnc3sc(-c4cccs4)nn23)cc1,–,inactive: -18.3%
CCCCn1c(=O)[nH]c(=O)c2c1nc(-c1ccccc1F)n2Cc1ccccc1OC,"inconclusive: 25.1 µM [inhibitor, single point]",–
Cc1cc(Cl)ccc1NC(=S)NCCN1CCOCC1,–,inactive: 5.06%
COc1ccc2c(C)cc(SCC(=O)c3ccc4c(c3)OCO4)nc2c1,"inconclusive: 39.8 µM [inhibitor, single point]",–
CCCOc1ccc(/C=N/Nc2ccccn2)cc1OC,"inconclusive: 35.5 µM [inhibitor, single point]",–
CC(=O)CC(=O)Nc1ccc2ccccc2c1,"inconclusive: 31.6 µM [inhibitor, single point]",–
CCc1cccc2c(C(=O)CSc3nnc(-c4ccncc4)n3C)c[nH]c12,–,inactive: -0.431%
COc1ccc(/C=C/C(=O)OCC(=O)Nc2c(C)cccc2C)cc1,"inconclusive: 25.1 µM [inhibitor, single point]",–
CCCC(CCC)c1nc2ccncc2[nH]1,"inconclusive: 39.8 µM [inhibitor, single point]",–
Cc1ccc2[nH]c(=O)c(CN(CCO)Cc3nnnn3CCc3ccccc3)cc2c1,"inconclusive: 39.8 µM [inhibitor, single point]",–
O=c1c(O)c(-c2ccc(O)cc2)oc2ccc(O)cc12,"inconclusive: 7.94 µM [inhibitor, full curve, poor fit]",–
CCc1nnc(NC(=O)c2ccc(S(=O)(=O)N(CCOC)CCOC)cc2)o1,–,inactive: -3.77%
Clc1ccccc1-c1nc(/C=N/N2CCOCC2)c2ccccn12,"inconclusive: 31.6 µM [inhibitor, partial curve]",–
Cc1csc(NC(=O)Cc2c[nH]c3ccccc23)n1,–,inactive: 1.52%
CCOc1ccc2nc(NCCNC(=O)CC)c(C#N)cc2c1,"inconclusive: 31.6 µM [inhibitor, partial curve]",–
COc1cc(/C=N/N2CCN(C3c4ccccc4-c4ccccc43)CC2)cc(OC)c1O,"inconclusive: 14.1 µM [inhibitor, partial curve]",–
